# Target: human orexin 1 receptor (Homo sapiens (Human), UniProt O43613)
# Details: read-out: OR 1 Ki, radioligand competition binding
# Sequence of UniProt O43613 (O43613 whole entry): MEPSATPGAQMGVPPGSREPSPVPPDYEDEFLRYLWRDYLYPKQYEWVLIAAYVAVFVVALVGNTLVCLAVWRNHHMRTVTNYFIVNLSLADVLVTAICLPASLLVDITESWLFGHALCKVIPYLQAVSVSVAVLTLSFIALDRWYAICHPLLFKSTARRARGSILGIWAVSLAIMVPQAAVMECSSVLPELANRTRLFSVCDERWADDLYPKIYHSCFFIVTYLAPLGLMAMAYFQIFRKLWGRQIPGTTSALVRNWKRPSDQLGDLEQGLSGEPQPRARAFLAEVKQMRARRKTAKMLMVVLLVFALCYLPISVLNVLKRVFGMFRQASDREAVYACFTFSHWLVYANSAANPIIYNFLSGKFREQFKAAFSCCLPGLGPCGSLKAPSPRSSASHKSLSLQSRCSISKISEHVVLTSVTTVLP
row,SMILES,Ki
1,"Cc1cc(CO)nc(N2CC3CN(C(=O)c4cccc(F)c4-c4nc(C)no4)CC3C2)n1 (stereo not drawn) [Example 436, {2-[5-{[3-Fluoro-2-(3-methyl-1,2,4-oxadiazol-5-yl)phenyl]carbonyl}hexahydropyrrolo[3,4-c]pyrrol-2(1H)-yl]-6-methylpyrimidin-4-yl}methanol]",2.44 µM
2,"Cc1cc(C)nc(N2CC3CN(C(=O)c4cccc(F)c4-c4nnc[nH]4)CC3C2)n1 (stereo not drawn) [Example 432, 2-(4,6-Dimethylpyrimidin-2-yl)-5-{[3-fluoro-2-(1H-1,2,4-triazol-5-yl)phenyl]carbonyl}octahydropyrrolo[3,4-c]pyrrole]",3.09 µM
3,"O=C(c1cccc(F)c1-c1cncs1)N1CC2CN(c3cnc4cc(F)c(F)cc4n3)CC2C1 (stereo not drawn) [Example 454, 6,7-Difluoro-2-[5-{[3-fluoro-2-(1,3-thiazol-5-yl)phenyl]carbonyl}hexahydropyrrolo[3,4-c]pyrrol-2(1H)-yl]quinoxaline]",0.245 µM
4,"Cc1cc(C)nc(N2CC3CN(C(=O)c4nc(C)ccc4-n4ccnn4)CC3C2)n1 (stereo not drawn) [Example 439, 2-(4,6-Dimethylpyrimidin-2-yl)-5-{[6-methyl-3-(1H-1,2,3-triazol-1-yl)pyridin-2-yl]carbonyl}octahydropyrrolo[3,4-c]pyrrole]",10 µM
5,"O=C(c1cccc(F)c1-c1ncco1)N1CC2CN(c3cnc4cc(F)c(F)cc4n3)CC2C1 (stereo not drawn) [Example 451, 6,7-Difluoro-2-[5-{[3-fluoro-2-(1,3-oxazol-2-yl)phenyl]carbonyl}hexahydropyrrolo[3,4-c]pyrrol-2(1H)-yl]quinoxaline]",0.63 µM
6,"Cc1cc(C)nc(N2CC3CN(C(=O)c4c(F)cccc4-c4ncccc4F)CC3C2)n1 (stereo not drawn) [Example 481, 2-(4,6-Dimethylpyrimidin-2-yl)-5-{[2-fluoro-6-(3-fluoropyridin-2-yl)phenyl]carbonyl}octahydropyrrolo[3,4-c]pyrrole]",1.5 µM
7,"O=C(c1cccc(F)c1-c1cscn1)N1CC2CN(c3cnc4cc(F)c(F)cc4n3)CC2C1 (stereo not drawn) [Example 455, 6,7-Difluoro-2-[5-{[3-fluoro-2-(1,3-thiazol-4-yl)phenyl]carbonyl}hexahydropyrrolo[3,4-c]pyrrol-2(1H)-yl]quinoxaline]",0.357 µM
8,"CCCOc1ccc(C)nc1C(=O)N1CC2CN(c3nc(C)cc(C)n3)CC2C1 (stereo not drawn) [Example 419, 2-(4,6-Dimethylpyrimidin-2-yl)-5-[(6-methyl-3-propoxypyridin-2-yl)carbonyl]octahydropyrrolo[3,4-c]pyrrole]",10 µM
9,"Cc1cc(C)nc(N2CC3CN(C(=O)c4c(F)cccc4-c4cncs4)CC3C2)n1 (stereo not drawn) [Example 487, 2-(4,6-Dimethylpyrimidin-2-yl)-5-{[2-fluoro-6-(1,3-thiazol-5-yl)phenyl]carbonyl}octahydropyrrolo[3,4-c]pyrrole]",3.05 µM
10,"CSc1nccc(-c2cccc(F)c2C(=O)N2CC3CN(c4nc(C)cc(C)n4)CC3C2)n1 (stereo not drawn) [Example 485, 2-(4,6-Dimethylpyrimidin-2-yl)-5-({2-fluoro-6-[2-(methylsulfanyl)pyrimidin-4-yl]phenyl}carbonyl)octahydropyrrolo[3,4-c]pyrrole]",9.22 µM
11,"Cc1cc(C)nc(N2CC3CN(C(=O)c4cccc5c4OCC5)CC3C2)n1 (stereo not drawn) [Example 463, 2-(2,3-Dihydro-1-benzofuran-7-ylcarbonyl)-5-(4,6-dimethylpyrimidin-2-yl)octahydropyrrolo[3,4-c]pyrrole]",10 µM
12,"COc1cnc(C(=O)N2CC3CN(c4nc(C)c(C)c(C)n4)CC3C2)c(-n2nccn2)c1 (stereo not drawn) [Example 444, 2-{[5-Methoxy-3-(2H-1,2,3-triazol-2-yl)pyridin-2-yl]carbonyl}-5-(4,5,6-trimethylpyrimidin-2-yl)octahydropyrrolo[3,4-c]pyrrole]",2.35 µM
13,"COc1ncc(-c2cccc(F)c2C(=O)N2CC3CN(c4nc(C)cc(C)n4)CC3C2)s1 (stereo not drawn) [Example 479, 2-(4,6-Dimethylpyrimidin-2-yl)-5-{[2-fluoro-6-(2-methoxy-1,3-thiazol-5-yl)phenyl]carbonyl}octahydropyrrolo[3,4-c]pyrrole]",9 µM
14,"O=C(c1cccc(F)c1-c1[nH]ncc1F)N1CC2CN(c3cnc4cc(F)c(F)cc4n3)CC2C1 (stereo not drawn) [Example 456, 6,7-Difluoro-2-[5-{[3-fluoro-2-(4-fluoro-1H-pyrazol-5-yl)phenyl]carbonyl}hexahydropyrrolo[3,4-c]pyrrol-2(1H)-yl]quinoxaline]",0.453 µM
15,"Cc1cc(C)nc(N2CC3CN(C(=O)c4c(F)cccc4-c4ncc(C)s4)CC3C2)n1 (stereo not drawn) [Example 477, 2-(4,6-Dimethylpyrimidin-2-yl)-5-{[2-fluoro-6-(5-methyl-1,3-thiazol-2-yl)phenyl]carbonyl}octahydropyrrolo[3,4-c]pyrrole]",0.269 µM
16,"Cc1cc(C)nc(N2CC3CN(C(=O)c4c(F)cccc4-c4nccs4)CC3C2)n1 (stereo not drawn) [Example 476, 2-(4,6-Dimethylpyrimidin-2-yl)-5-{[2-fluoro-6-(1,3-thiazol-2-yl)phenyl]carbonyl}octahydropyrrolo[3,4-c]pyrrole]",1.39 µM
17,"CCOc1ccc(C)nc1C(=O)N1CC2CN(c3nc(C)cc(C)n3)CC2C1 (stereo not drawn) [Example 414, 2-(4,6-Dimethylpyrimidin-2-yl)-5-[(3-ethoxy-6-methylpyridin-2-yl)carbonyl]octahydropyrrolo[3,4-c]pyrrole]",10 µM
18,"Cc1cc(C)nc(N2CC3CN(C(=O)c4ccccc4-c4cn(Cc5ccccc5)nn4)CC3C2)n1 (stereo not drawn) [Example 434, 2-{[2-(1-Benzyl-1H-1,2,3-triazol-4-yl)phenyl]carbonyl}-5-(4,6-dimethylpyrimidin-2-yl)octahydropyrrolo[3,4-c]pyrrole]",1.52 µM

# Results, then the compound that gave them:
row,Ki,SMILES
1,1.24 µM,"Cc1nc(N(C)C)cc(N2CC3CN(C(=O)c4cc(F)ccc4-c4ncccn4)CC3C2)n1 (stereo not drawn) [Example 425, 6-{5-[(5-Fluoro-2-pyrimidin-2-ylphenyl)carbonyl]hexahydropyrrolo[3,4-c]pyrrol-2(1H)-yl}-N,N,2-trimethylpyrimidin-4-amine]"
2,0.284 µM,"COc1ccnc(-c2cccc(F)c2C(=O)N2CC3CN(c4nc(C)cc(C)n4)CC3C2)n1 (stereo not drawn) [Example 483, 2-(4,6-Dimethylpyrimidin-2-yl)-5-{[2-fluoro-6-(4-methoxypyrimidin-2-yl)phenyl]carbonyl}octahydropyrrolo[3,4-c]pyrrole]"
3,3.7 µM,"Cc1ccnc(-c2cccc(F)c2C(=O)N2CC3CN(c4nc(C)cc(C)n4)CC3C2)c1 (stereo not drawn) [Example 489, 2-(4,6-Dimethylpyrimidin-2-yl)-5-{[2-fluoro-6-(4-methylpyridin-2-yl)phenyl]carbonyl}octahydropyrrolo[3,4-c]pyrrole]"
4,5 µM,"Cc1nc(N(C)C)cc(N2CC3CN(C(=O)c4cccc(F)c4-n4nccn4)CC3C2)n1 (stereo not drawn) [Example 416, 6-[5-{[3-Fluoro-2-(2H-1,2,3-triazol-2-yl)phenyl]carbonyl}hexahydropyrrolo[3,4-c]pyrrol-2(1H)-yl]-N,N,2-trimethylpyrimidin-4-amine]"
5,1.1 µM,"Cc1ccc(-c2ncccn2)c(C(=O)N2CC3CN(c4nc(C)c(C)c(C)n4)CC3C2)n1 (stereo not drawn) [Example 445, 2-[(6-Methyl-3-pyrimidin-2-ylpyridin-2-yl)carbonyl]-5-(4,5,6-trimethylpyrimidin-2-yl)octahydropyrrolo[3,4-c]pyrrole]"
6,3.16 µM,"Cc1ccc(-c2ncccn2)c(C(=O)N2CC3CN(c4cc(N(C)C)nc(C)n4)CC3C2)n1 (stereo not drawn) [Example 428, N,N,2-Trimethyl-6-{5-[(6-methyl-3-pyrimidin-2-ylpyridin-2-yl)carbonyl]hexahydropyrrolo[3,4-c]pyrrol-2(1H)-yl}pyrimidin-4-amine]"
7,1.34 µM,"Cc1cc(C)nc(N2CC3CN(C(=O)c4c(F)cccc4-c4cn(C)cn4)CC3C2)n1 (stereo not drawn) [Example 482, 2-(4,6-Dimethylpyrimidin-2-yl)-5-{[2-fluoro-6-(1-methyl-1H-imidazol-4-yl)phenyl]carbonyl}octahydropyrrolo[3,4-c]pyrrole]"
8,0.926 µM,"Cc1cc(C)nc(N2CC3CN(C(=O)c4c(F)cccc4-c4ncco4)CC3C2)n1 (stereo not drawn) [Example 491, 2-(4,6-Dimethylpyrimidin-2-yl)-5-{[2-fluoro-6-(1,3-oxazol-2-yl)phenyl]carbonyl}octahydropyrrolo[3,4-c]pyrrole]"
9,0.166 µM,"Cc1nc(N(C)C)cc(N2CC3CN(C(=O)c4c(F)cccc4-c4ncccn4)CC3C2)n1 (stereo not drawn) [Example 426, 6-{5-[(2-Fluoro-6-pyrimidin-2-ylphenyl)carbonyl]hexahydropyrrolo[3,4-c]pyrrol-2(1H)-yl}-N,N,2-trimethylpyrimidin-4-amine]"
10,1.01 µM,"Cc1nc(N(C)C)cc(N2CC3CN(C(=O)c4ccc(F)cc4-n4nccn4)CC3C2)n1 (stereo not drawn) [Example 417, 6-[5-{[4-Fluoro-2-(2H-1,2,3-triazol-2-yl)phenyl]carbonyl}hexahydropyrrolo[3,4-c]pyrrol-2(1H)-yl]-N,N,2-trimethylpyrimidin-4-amine]"
11,2.77 µM,"Cc1cccc(C(=O)N2CC3CN(c4cnc5cc(F)c(F)cc5n4)CC3C2)c1-n1nccn1 (stereo not drawn) [Example 460, 6,7-Difluoro-2-[5-{[3-methyl-2-(2H-1,2,3-triazol-2-yl)phenyl]carbonyl}hexahydropyrrolo[3,4-c]pyrrol-2(1H)-yl]quinoxaline]"
12,5.9 µM,"CCOc1ncccc1C(=O)N1CC2CN(c3cnc4cc(F)c(F)cc4n3)CC2C1 (stereo not drawn) [Example 447, 2-{5-[(2-Ethoxypyridin-3 yl)carbonyl]hexahydropyrrolo[3,4-c]pyrrol-2(1H)-yl}-6,7-difluoroquinoxaline]"
13,1.08 µM,"Cc1cc(C)nc(N2CC3CN(C(=O)c4cccc(F)c4-c4ccccn4)CC3C2)n1 (stereo not drawn) [Example 472, (5-(4,6-dimethylpyrimidin-2-yl)hexahydropyrrolo[3,4-c]pyrrol-2(1H)-yl)(3-fluoro-2-(pyridin-2-yl)phenyl)methanone]"
14,5 µM,"CCCOc1ccc(C)cc1C(=O)N1CC2CN(c3cc(N(C)C)nc(C)n3)CC2C1 (stereo not drawn) [Example 430, N,N,2-Trimethyl-6-{5-[(5-methyl-2-propoxyphenyl)carbonyl]hexahydropyrrolo[3,4-c]pyrrol-2(1H)-yl}pyrimidin-4-amine]"
15,0.207 µM,"COc1ccc(C(=O)N2CC3CN(c4cnc5cc(F)c(F)cc5n4)CC3C2)c(-c2ncccn2)c1 (stereo not drawn) [Example 459, 6,7-Difluoro-2-{5-[(4-methoxy-2-pyrimidin-2-ylphenyl)carbonyl]hexahydropyrrolo[3,4-c]pyrrol-2(1H)-yl}quinoxaline]"
